Measurements reported in paper PMC10668032.
Some of the results follow. At the low end of the ranking, values are background and their order means little.

target: SIX1 homeodomain (reference allele) (UniProt Q15475); experiment: universal protein binding microarray; details: Universal all-10-mer PBM (8x60K, AMADID 030236), 300 nM GST-tagged protein, Alexa Fluor 488 anti-GST; buffer, salt, pH and temperature not stated; high values mean tight binding; most listed sequences are background and not binding sites; double strand, one strand shown

Row | Sequence | binding signal
1 | AGCTTTAT | -0.192 E-score
2 | CTCCAAGA | -0.145 E-score
3 | AGACACTA | 0.0219 E-score
4 | ACGTCCCA | -0.198 E-score
5 | ACCCGGAC | -0.0377 E-score
6 | ACGTATAA | 0.268 E-score
7 | CGGCGCCC | -0.241 E-score
8 | ATTAGTGC | -0.0649 E-score
9 | CCATGAAC | -0.0835 E-score
10 | AGCGGTAC | 0.0399 E-score
11 | AGGAGCGC | -0.155 E-score
12 | ACTCTTGG | -0.0355 E-score
13 | CAATTGCC | -0.134 E-score
14 | ACTCATCG | -0.133 E-score
15 | ATGCCGTA | 0.0342 E-score
16 | GGTCCAGA | -0.2 E-score
17 | CGGTCAGA | -0.00541 E-score
18 | CTACGGTC | -0.215 E-score
19 | CTACGATA | 0.321 E-score
20 | GACCAGCC | -0.17 E-score
21 | GCCCTTTA | -0.209 E-score
22 | CGGCGTTA | -0.0987 E-score
23 | GGAAGGTA | 0.0419 E-score
24 | GGACTCTA | -0.133 E-score
25 | AATTACAT | -0.0193 E-score

Row | Sequence | binding signal
26 | GAGGCAGC | -0.191 E-score
27 | CCACGAGA | 0.00767 E-score
28 | ACGAGATA | 0.242 E-score
29 | ATATAGAG | 0.202 E-score
30 | AGTAAAAC | -0.00906 E-score
31 | ACGGGACT | -0.244 E-score
32 | AGCGTAGC | -0.22 E-score
33 | GCACCATA | 0.0347 E-score
34 | CATACAGG | 0.148 E-score
35 | CAGCGCGC | -0.225 E-score
36 | GTAAAGTA | 0.0213 E-score
37 | TCAATGCA | -0.0927 E-score
38 | ATTCGACC | -0.152 E-score
39 | GAAGCTGC | -0.0612 E-score
40 | ACGCCACT | -0.0852 E-score
41 | GAGGTAAA | -0.269 E-score
42 | CAGGGGAA | 0.0748 E-score
43 | CTGAAGCC | -0.191 E-score
44 | ACCACCTG | 0.0688 E-score
45 | CAAGCATG | -0.0273 E-score
46 | AGCCCGTG | 0.0107 E-score
47 | CCAACTGC | -0.126 E-score
48 | AGTTTGAC | -0.153 E-score
49 | ACACAAAT | -0.0105 E-score
50 | ACTTACCA | 0.0574 E-score

Row | Sequence | binding signal
51 | GTCCGTGA | -0.105 E-score
52 | CATCCTGA | 0.169 E-score
53 | ACTTTAGG | -0.0969 E-score
54 | CACTTTGC | -0.07 E-score
55 | AGGTGGCA | -0.158 E-score
56 | AGCAGCCA | -0.322 E-score
57 | ATAATGAC | 0.0838 E-score
58 | AGAACGGC | 0.105 E-score
59 | ATCATAAA | 0.143 E-score
60 | CAATGCGA | 0.0352 E-score
61 | AAGTATCA | 0.461 E-score
62 | ATTTTCCG | -0.112 E-score
63 | GCTTCTCA | 0.165 E-score
64 | ATTTCAGC | -0.222 E-score
65 | CAAGGCCC | -0.288 E-score
66 | GACACTGC | 0.134 E-score
67 | AAAATCTG | -0.053 E-score
68 | AATTGTCA | -0.15 E-score
69 | GACGTTGA | -0.0747 E-score
70 | CATAATCG | 0.00656 E-score
71 | CGGATAAG | 0.187 E-score
72 | GCAAGTAC | -0.332 E-score
73 | CATAATTC | -0.198 E-score
74 | CCGACTTA | 0.0412 E-score
75 | CCTGCAAG | 0.064 E-score

Row | Sequence | binding signal
76 | AATCGGGG | 0.181 E-score
77 | ACACGCGG | -0.019 E-score
78 | ATGCACCA | 0.0323 E-score
79 | GCAGCATA | -0.0476 E-score
80 | AAGTAGCA | -0.29 E-score
81 | ACAGCAGT | 0.0849 E-score
82 | ACTCGGCT | -0.185 E-score
83 | AAACATAT | 0.149 E-score
84 | ACACCAAT | 0.348 E-score
85 | AAATTACG | -0.261 E-score
86 | GTCCGGGA | -0.0803 E-score
87 | CGTAACCA | -0.239 E-score
88 | CCACTACA | 0.129 E-score
89 | ACCCTATA | 0.195 E-score
90 | ATGGCTGA | 0.06 E-score
91 | GGCGCGCA | -0.115 E-score
92 | GGGTATAC | 0.416 E-score
93 | GCGGTTAA | -0.125 E-score
94 | CCACTCTC | -0.0439 E-score
95 | AGAATACA | 0.051 E-score
96 | ACTTAAGG | -0.0431 E-score
97 | ATCCACAG | 0.244 E-score
98 | CTCAGAGC | -0.0696 E-score
99 | GCCGCTAA | -0.219 E-score
100 | CCACCTCG | -0.0811 E-score

Row | Sequence | binding signal
101 | GAGAGTAC | -0.212 E-score
102 | CGCGCCCA | -0.0194 E-score
103 | TATGCACA | 0.134 E-score
104 | CTTTGACC | -0.108 E-score
105 | CTGCGTCC | -0.26 E-score
106 | CTACTCTC | 0.0646 E-score
107 | ACTTGCTG | -0.188 E-score
108 | AATCGTGG | -0.0848 E-score
109 | ACCTGTAG | -0.146 E-score
110 | AACCTATA | 0.205 E-score
111 | CATCTCCG | 0.149 E-score
112 | CTCCCAGA | 0.00686 E-score
113 | GACTAGGA | -0.188 E-score
114 | ACAAAGTG | 0.0436 E-score
115 | AATTGGGC | -0.198 E-score
116 | AATTGCCT | -0.127 E-score
117 | AAATCGTC | -0.0608 E-score
118 | CATGAAAC | 0.0269 E-score
119 | AAAGGTCC | -0.237 E-score
120 | CCCGTATC | 0.469 E-score
121 | CGTGCTAG | 0.00861 E-score
122 | ACTCTCTG | -0.0582 E-score
123 | GGCTTTTA | -0.177 E-score
124 | ATGCACTG | -0.0929 E-score
125 | AAAAAAGG | -0.113 E-score

Row | Sequence | binding signal
126 | AGTTCCCG | -0.264 E-score
127 | ACGTACCT | 0.0156 E-score
128 | TCAGTCGA | -0.147 E-score
129 | AAAACCTT | -0.209 E-score
130 | AAGGGTAA | 0.173 E-score
131 | AGAGTTGA | 0.103 E-score
132 | CGTTAAGA | -0.0997 E-score
133 | CTAAGAAA | -0.157 E-score
134 | AGAAGCTG | -0.139 E-score
135 | AAAATTCT | -0.319 E-score
136 | AGTGCTGG | -0.157 E-score
137 | AAGGTTCA | -0.0406 E-score
138 | CAGTCACC | -0.153 E-score
139 | AAGACGTG | -0.064 E-score
140 | ACGGTCCA | -0.375 E-score
141 | ATGCGAAA | -0.127 E-score
142 | TATGCTAA | 0.0443 E-score
143 | GCCATGAC | -0.14 E-score
144 | AATGGCGC | -0.345 E-score
145 | AATTCCAG | -0.107 E-score
146 | AGGTATGG | 0.177 E-score
147 | CCTCTGAC | 0.036 E-score
148 | CACGCCCG | 0.123 E-score
149 | GGGAAGAC | -0.19 E-score
150 | CCCTAATA | 0.0416 E-score

Row | Sequence | binding signal
151 | ACATACAA | -0.137 E-score
152 | AGGCAGCG | -0.205 E-score
153 | ATATGCGC | 0.27 E-score
154 | CGCTTCCC | -0.0926 E-score
155 | AAGCAGAA | -0.0948 E-score
156 | AATCTCCA | 0.0639 E-score
157 | CGCATCAA | -0.0168 E-score
158 | AAAGTCCT | -0.24 E-score
159 | GCGTTGTA | -0.0943 E-score
160 | CCGATGAG | 0.173 E-score
161 | ACTCCACT | -0.0647 E-score
162 | GTGGTGCA | -0.199 E-score
163 | GATACCCA | 0.476 E-score
164 | GCCACTAA | -0.146 E-score
165 | GCGTGTAA | -0.0171 E-score
166 | AGTCCCAA | -0.211 E-score
167 | ACTTATCT | 0.138 E-score
168 | ACGGATCC | 0.386 E-score
169 | AGACCTCA | -0.197 E-score
170 | GGTGCCAA | -0.0189 E-score
171 | GAGCACCC | 0.165 E-score
172 | CGTTAGGC | -0.0658 E-score
